Data: PubChem BioAssay AID588342 (National Center for Advancing Translational Sciences (NCATS), 2011)
Values joined by “and” are separate entries in the source; they are usually repeats but may differ in a detail not shown here. Equal entries are not always repeated. Out of some 360,000 compounds screened, about 25,000 (6.9%) were called active. The shares of active, inactive and inconclusive entries below differ from those in the screen. Calls come from the whole dose curve; as a rule, active = well fitted inhibition curve with a large enough effect; inconclusive = small, poorly fitted or top-dose-only effect; inactive = flat fitted curve, though single readings scatter. Potencies of inconclusive entries are doubtful fits and often do not repeat.
Note: nearly all actives have a fitted effect of over 55% in size.
Potency is the fitted concentration of half-maximal effect; tags give direction and shape of the fitted curve.
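Throughout, for activity change, negative = inhibition: plate controls were vehicle for no effect and reference inhibitor for full effect.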

These compounds were tested against Luciferin 4-monooxygenase (Photinus pyralis) (UniProt P08659) (assay: qHTS profiling assay for firefly luciferase inhibitor/activator using purifed enzyme and Km concentrations of substrates (counterscreen for miR-21 project)). Settings: purified FLuc, luminescence inhibition; activity change, negative = inhibition: at 57.5 µM (top of the series).
UniProt P08659, sequence (P08659 whole entry, looked up): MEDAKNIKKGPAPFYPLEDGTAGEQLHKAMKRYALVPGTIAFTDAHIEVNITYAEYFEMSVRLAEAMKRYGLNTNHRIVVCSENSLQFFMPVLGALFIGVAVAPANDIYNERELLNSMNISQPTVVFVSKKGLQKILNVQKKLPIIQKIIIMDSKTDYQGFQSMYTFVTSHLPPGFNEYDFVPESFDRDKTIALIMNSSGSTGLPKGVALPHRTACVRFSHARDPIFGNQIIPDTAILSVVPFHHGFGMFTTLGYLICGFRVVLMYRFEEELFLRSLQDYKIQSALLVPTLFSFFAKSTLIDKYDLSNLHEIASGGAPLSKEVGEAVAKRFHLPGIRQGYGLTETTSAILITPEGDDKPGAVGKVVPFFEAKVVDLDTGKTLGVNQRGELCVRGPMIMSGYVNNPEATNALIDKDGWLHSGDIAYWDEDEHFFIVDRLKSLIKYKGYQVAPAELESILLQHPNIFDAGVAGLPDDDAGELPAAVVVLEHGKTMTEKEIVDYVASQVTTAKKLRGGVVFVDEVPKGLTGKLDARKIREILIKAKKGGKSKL
Procedure, shortened: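 Purified P. pyralis luciferase (10nM final) with 10uM D-luciferin and 10uM ATP (Km levels) in 50mM Tris acetate pH 7.5, 10mM Mg acetate, 0.01% Tween-20, 0.05% BSA; qHTS 6-point titration, ~60 µM downward; luminescence read.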
In the case of CCCCOc1ccc(-n2nc(C)cc2C)nn1, the Potency is reported as active: 16.9 µM.
For CCOC(=O)C1=C(COC(=O)/C=C/c2cccc([N+](=O)[O-])c2)NC(=O)NC1C (stereo not drawn), the “activity change, negative = inhibition” value was inactive: 9.76%.
With O=C(NNC(=O)c1cc(-c2ccco2)nc2ccccc12)c1ccccc1 the Potency was active: 19 µM.
COc1cccc(C(=O)Nc2ccc(NC(=O)c3ccco3)c(Cl)c2)c1 was tested, and the Potency was inconclusive: 7.57 µM [inhibitor, partial curve].
In the case of S=c1[nH]nc(-c2ccco2)n1/N=C/C(Cl)=C/c1ccccc1, the Potency is reported as inconclusive: 23.9 µM [inhibitor, single point].
In the case of COc1ccc(/C=C2/SC(=O)N(NS(=O)(=O)c3ccccc3)C2=S)cc1OC, the Potency is reported as inconclusive: 37.9 µM [inhibitor, single point].
With CCOc1ccc(NC(=O)CSc2ncc(S(=O)(=O)c3ccc(F)c(C)c3)c(=O)[nH]2)cc1 the Potency was inconclusive: 10.7 µM [inhibitor, partial curve].
COc1ccc(OC)c(CNC(=O)Cc2c(C(=O)O)[nH]c3ccc(Cl)cc23)c1 was tested, and the Potency was inconclusive: 12 µM [inhibitor, partial curve].
In the case of CCS(=O)(=O)Nc1ccc2[nH]c(=O)[nH]c2c1, the “activity change, negative = inhibition” value is reported as inactive: -1.4%.
For O=C(Nc1ccc(Cl)cn1)c1cccc2ccccc12, the Potency was inconclusive: 23.9 µM [inhibitor, single point].
With O=C(N/N=C/c1ccc(Br)s1)Nc1ccccc1 the Potency was inconclusive: 26.9 µM [inhibitor, single point].
In the case of CC(=O)c1ccc(NC(=O)CSc2ccc(-c3ccc4c(c3)OCO4)nn2)cc1, the Potency is reported as inconclusive: 0.536 µM [inhibitor, full curve].
With COc1ccc(-c2cc(C(=O)N/N=C/c3cccnc3)c3cc(C)cc(C)c3n2)cc1 the Potency was active: 7.57 µM.
With COc1ccc2nc(NC(=O)c3ccc4ncsc4c3)sc2c1 the Potency was active: 1.07 µM.
With COc1ccc(Cn2c(SCc3ccc(C(=O)NC4CCCCC4)cc3)nc3ccncc32)cc1 the Potency was inconclusive: 6.75 µM [inhibitor, partial curve, poor fit].
In the case of COC(=O)c1c(NC(=O)C(=O)N2CCCCC2)sc2c1CC(C)(C)OC2, the “activity change, negative = inhibition” value is reported as inactive: 0.968%.
For COc1ccc(-c2csc(-n3cccn3)n2)cc1, the Potency was active: 3.79 µM.
In the case of COc1ccc(NC(=O)n2nc(OC(=O)c3cccs3)cc2N)cc1, the Potency is reported as active: 16.9 µM.
CC(Oc1ccc(Cl)cc1)C(=O)Nc1ccccc1C(=O)N1CCOCC1 (stereo not drawn) was tested, and the “activity change, negative = inhibition” value was inactive: 0.598%.
With COc1cc(C(C)=O)ccc1Oc1ncnc2c1cnn2-c1ccc(F)cc1 the Potency was inconclusive: 3.01 µM [inhibitor, partial curve, poor fit].
With CO/C([O-])=N/c1c[n+](-c2ccc(C)cc2)no1 the Potency was inconclusive: 37.9 µM [inhibitor, partial curve, poor fit].
In the case of CCCCOC(=O)c1ccc(NC(=O)C(=O)NCc2ccncc2)cc1, the Potency is reported as inconclusive: 16.9 µM [inhibitor, partial curve].
COc1ccc(N2CCN(c3ncccc3-c3nc(-c4ccccc4C)no3)CC2)cc1 was tested, and the Potency was active: 15.1 µM.
For COC(=O)c1noc(-c2ccc(C)cc2)n1, the Potency was active: 10.7 µM.
With Cc1cccc(CNC(=O)c2ccc3c(c2)N(C)CCS3)c1 the Potency was inconclusive: 30.1 µM [inhibitor, partial curve, poor fit] and inconclusive: 37.9 µM [inhibitor, partial curve, poor fit].
COc1ccc(CCN2CC(C(=O)NCc3nc(C)c(C)s3)CCC2=O)cc1 (stereo not drawn) was tested, and the “activity change, negative = inhibition” value was inactive: 5.38%.
In the case of O=C(c1ccc(Cl)cc1)n1c(NCc2ccccc2)n[nH]c1=S, the “activity change, negative = inhibition” value is reported as inactive: -17%.
COc1cccc(-c2ccc(-c3noc(-c4ccccc4F)n3)c(OC)n2)c1 was tested, and the Potency was inconclusive: 15.1 µM [inhibitor, partial curve].
With O=C(Nc1cccc([N+](=O)[O-])c1)c1ccc2c(c1)OCCO2 the Potency was active: 7.57 µM.
For CCCN(CCC)CCCNC(=O)c1cc2c(=O)[nH]c3ccccc3c2s1, the “activity change, negative = inhibition” value was inactive: -1.67%.
With Cc1ccc(-c2nc3c4ccccc4ccn3c2CN2CCCCC2)cc1 the Potency was inconclusive: 21.3 µM [inhibitor, single point].
For CCSC1=N/C(=C\c2ccccc2)C(=O)N1, the Potency was inconclusive: 37.9 µM [inhibitor, partial curve, poor fit].
With O=C(CSc1nc2ccccc2c(=O)[nH]1)c1ccc(O)cc1O the Potency was inconclusive: 23.9 µM [inhibitor, partial curve].
C[C@]12CC[C@@H]3c4ccc(OC(=O)c5ccccc5)cc4CC[C@H]3[C@@H]1CC[C@@H]2O was tested, and the Potency was inconclusive: 16.9 µM [inhibitor, partial curve].
In the case of Cc1ccc(-c2nnc(N3CCCCC3)c3ccccc23)cc1S(=O)(=O)NCC1CCCO1 (stereo not drawn), the Potency is reported as inconclusive: 23.9 µM [inhibitor, partial curve, poor fit].
With CC(=O)Nc1ccc(NCC(=O)c2ccccc2)cc1 the Potency was active: 15.1 µM.
In the case of COc1ccc(S(=O)(=O)N2CCN(S(=O)(=O)c3ccc(OC)cc3)CC2)cc1, the Potency is reported as inconclusive: 21.3 µM [inhibitor, single point].
For O=C(Nc1cccc(NC(=O)c2ccco2)c1)c1ccc2c(c1)OCCO2, the Potency was active: 9.53 µM.
O=C(CN1C(=O)/C(=C\c2cccc(Cl)c2)Sc2ccccc21)NCCCN1CCOCC1 was tested, and the Potency was inconclusive: 23.9 µM [inhibitor, single point].
COc1ccc(N2CCN(c3ccc(-c4nc(-c5ccccc5C)no4)cc3[N+](=O)[O-])CC2)cc1 was tested, and the Potency was inconclusive: 3.38 µM [inhibitor, partial curve, poor fit].
In the case of CSc1cccc(NC(=O)c2ccccn2)c1, the Potency is reported as active: 10.7 µM.
COc1ccc(-c2cc(=O)n3[nH]cnc3n2)cc1 was tested, and the Potency was active: 15.1 µM.
CCOC(=O)c1oc2cc(C)cc(O)c2c(=O)c1-c1csc(C)n1 was tested, and the Potency was inconclusive: 6.75 µM [inhibitor, full curve].
COc1ccc(C(=O)Nc2ccccc2C(=O)OCc2cc(=O)n3c4c(sc3n2)CCCC4)cc1 was tested, and the “activity change, negative = inhibition” value was inactive: -5.9%.
CCOC(=O)C1(CC2CCCCO2)CCN(Cc2ccccc2-c2ccco2)CC1 (stereo not drawn) was tested, and the “activity change, negative = inhibition” value was inactive: 0.132%.
For Cc1ccccc1OC(=O)n1c(=S)oc2cc(Cl)ccc21, the Potency was inconclusive: 37.9 µM [inhibitor, partial curve, poor fit].
With CCOC(=O)N1CCN(C(=O)CSCc2ccccc2)CC1 the Potency was inconclusive: 37.9 µM [inhibitor, single point].
For Cn1ccnc1Sc1ccc(/C=N/NC(=O)c2ccccc2[N+](=O)[O-])cc1[N+](=O)[O-], the “activity change, negative = inhibition” value was inactive: 1.31%.
For Cc1cc(C(=O)N/N=C/c2ccc([N+](=O)[O-])s2)n[nH]1, the “activity change, negative = inhibition” value was inactive: -1.59%.
O=C(NCCc1ccc(Cl)cc1Cl)c1ccc2nc[nH]c2c1 was tested, and the Potency was inconclusive: 23.9 µM [inhibitor, partial curve, poor fit].
With CCOc1ccc(/C=N/NC(=O)c2cc(-c3ccccc3)nc3ccccc23)cc1O the Potency was active: 15.1 µM.
In the case of O=C(c1ccc(CS(=O)c2ccc(F)cc2)o1)N1CCN(C2CCCCC2)CC1 (stereo not drawn), the “activity change, negative = inhibition” value is reported as inactive: 1.76%.
For COc1cc(-c2nc(-c3ccc(NC(=O)c4ccc(Br)o4)cc3)no2)cc(OC)c1OC, the Potency was inconclusive: 26.9 µM [inhibitor, single point].
O=S(=O)(c1cccc(-c2nnc(SCc3nc4ccccc4s3)o2)c1)N1CCOCC1 was tested, and the Potency was active: 19 µM.
With COc1ccccc1NC(=O)COc1ccc2ccccc2c1 the Potency was active: 15.1 µM.
In the case of O=C(/C=C/c1ccco1)NC(=S)Nc1ccccc1O, the Potency is reported as inconclusive: 26.9 µM [inhibitor, single point].
In the case of O=C(Nc1ccccc1F)c1ccc2ncsc2c1, the Potency is reported as inconclusive: 26.9 µM [inhibitor, single point].
With Cc1cccc(-n2ncc3c(N(C)C4CCCCC4)ncnc32)c1 the Potency was active: 0.169 µM.
In the case of O=C(COC(=O)c1cccnc1Cl)Nc1ccc2c(c1)OCO2, the Potency is reported as inconclusive: 23.9 µM [inhibitor, single point].
S=C1c2ccccc2CN1c1ccccc1 was tested, and the Potency was inconclusive: 26.9 µM [inhibitor, partial curve].
For CC1=C(C(=O)Nc2ccccc2C)C(c2cccnc2)n2nc(SCc3ccccc3)nc2N1 (stereo not drawn), the “activity change, negative = inhibition” value was inactive: 4.64%.
For O=C(CC1N=C2c3ccccc3N=C(SCc3ccc(Cl)cc3)N2C1=O)NCCc1ccccc1 (stereo not drawn), the Potency was inconclusive: 37.9 µM [inhibitor, partial curve, poor fit].
In the case of CCOC(=O)C1CCN(c2nc(C)nc3c2oc2ccccc23)CC1, the Potency is reported as inconclusive: 23.9 µM [inhibitor, single point].
O=C(NC(=S)Nc1ccccn1)c1ccccc1 was tested, and the Potency was active: 7.57 µM.
For COc1cccc(/C=C/c2ccc3cccc(O)c3n2)c1, the Potency was active: 1.51 µM.
In the case of CCCc1nc(SCC(=O)O)c2sc(=S)n(-c3ccccc3)c2n1, the “activity change, negative = inhibition” value is reported as inactive: 2.82%.
In the case of O=c1cc(-c2ccccc2F)oc2ccccc12, the Potency is reported as active: 10.7 µM.
With O=C(O)COc1c(-c2ccco2)oc2ccccc2c1=O the Potency was inconclusive: 16.9 µM [inhibitor, partial curve, poor fit].
For Cn1nccc1NC(=O)Nc1ccc(OC(F)(F)F)cc1, the Potency was inconclusive: 30.1 µM [inhibitor, single point].
With O=C(c1cc2c(s1)CCCC2)n1cccn1 the Potency was active: 21.3 µM.
In the case of O=C(Nc1ccc(-c2cc(C(F)(F)F)nn2-c2ccccc2)cc1)c1cccc(F)c1, the “activity change, negative = inhibition” value is reported as inactive: -6.36%.
For CCN(CC)c1ccc(C(=O)NCc2ccc3c(c2)CCN3C(=O)c2ccccc2)cc1, the Potency was inconclusive: 8.49 µM [inhibitor, partial curve, poor fit].
For CCN(CC)S(=O)(=O)c1ccc(O)c(C(=O)OCC(=O)Nc2cc(C)c(C)cc2[N+](=O)[O-])c1, the Potency was inconclusive: 15.1 µM [inhibitor, partial curve, poor fit].
